Assay results taken from the supplement of paper PMC3334620.
Over roughly 33,000 sequences, “E-score (-0.5 to 0.5)” has its median near -0.053; the highest 2% begin near 0.37. This is one part of the list.

target: Hap1 (UniProt P0CE41); assay: PBM E-score (8-mer binding enrichment) (E-score (-0.5 to 0.5)); higher = stronger / more preferred TF binding; most listed sequences are background and not binding sites; conditions: protein concentration: 200 nM; construct: GST-DNA-binding domain
Method in brief: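 PURExpress in vitro transcription/translation supplied GST-tagged yeast transcription factors, either full-length or DNA-binding domain. Applied at about 100-200 nM to universal all-10-mer Agilent arrays double-stranded by primer extension, the bound protein was detected with fluorescent anti-GST. E-scores, modified Wilcoxon-Mann-Whitney statistics, were given by the Universal PBM Analysis Suite to ungapped eight-base words pooled with their reverse complements after masliner normalisation.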

Chain of UniProt P0CE41 (P0CE41 whole entry, the tested form may be a part): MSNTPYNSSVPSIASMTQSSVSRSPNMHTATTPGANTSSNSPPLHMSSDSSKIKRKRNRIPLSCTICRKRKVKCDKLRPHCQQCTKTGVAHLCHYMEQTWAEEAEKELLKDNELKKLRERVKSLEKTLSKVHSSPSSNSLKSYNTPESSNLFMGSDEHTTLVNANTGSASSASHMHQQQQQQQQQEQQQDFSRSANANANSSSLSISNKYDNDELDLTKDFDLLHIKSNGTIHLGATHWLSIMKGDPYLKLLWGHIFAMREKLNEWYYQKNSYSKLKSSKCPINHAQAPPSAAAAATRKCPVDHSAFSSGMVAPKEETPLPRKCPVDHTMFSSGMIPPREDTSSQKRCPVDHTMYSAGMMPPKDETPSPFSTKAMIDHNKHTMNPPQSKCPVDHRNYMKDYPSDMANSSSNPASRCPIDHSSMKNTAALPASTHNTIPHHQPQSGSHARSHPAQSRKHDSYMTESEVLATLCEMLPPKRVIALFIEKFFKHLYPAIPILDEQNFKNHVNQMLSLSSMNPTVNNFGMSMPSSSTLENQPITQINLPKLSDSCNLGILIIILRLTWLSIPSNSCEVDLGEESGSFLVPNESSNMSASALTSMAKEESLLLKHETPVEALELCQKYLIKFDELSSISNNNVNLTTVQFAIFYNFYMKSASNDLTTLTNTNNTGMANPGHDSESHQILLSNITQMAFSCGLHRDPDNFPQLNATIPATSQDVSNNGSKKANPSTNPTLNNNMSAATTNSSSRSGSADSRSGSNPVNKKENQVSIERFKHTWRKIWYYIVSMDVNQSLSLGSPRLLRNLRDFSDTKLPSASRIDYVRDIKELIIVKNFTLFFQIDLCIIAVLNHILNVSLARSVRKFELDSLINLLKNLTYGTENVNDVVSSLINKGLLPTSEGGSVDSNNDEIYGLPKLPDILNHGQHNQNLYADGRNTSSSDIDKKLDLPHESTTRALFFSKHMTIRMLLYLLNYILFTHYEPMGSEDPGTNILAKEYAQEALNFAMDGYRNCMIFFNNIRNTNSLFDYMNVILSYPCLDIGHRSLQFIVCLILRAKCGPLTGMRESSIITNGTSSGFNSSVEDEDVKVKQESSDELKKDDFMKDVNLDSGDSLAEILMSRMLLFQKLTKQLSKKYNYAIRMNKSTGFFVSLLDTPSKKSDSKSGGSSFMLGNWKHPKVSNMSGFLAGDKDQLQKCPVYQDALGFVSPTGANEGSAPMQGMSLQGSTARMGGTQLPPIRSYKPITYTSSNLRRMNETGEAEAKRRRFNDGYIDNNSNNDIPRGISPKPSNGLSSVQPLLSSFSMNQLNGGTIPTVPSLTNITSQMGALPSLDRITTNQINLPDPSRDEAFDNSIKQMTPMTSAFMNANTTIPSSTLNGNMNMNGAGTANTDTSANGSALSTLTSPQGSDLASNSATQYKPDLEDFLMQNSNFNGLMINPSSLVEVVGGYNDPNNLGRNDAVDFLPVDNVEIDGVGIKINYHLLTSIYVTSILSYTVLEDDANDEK

| Sequence | PBM E-score |
| --- | --- |
| CACATTAC | -0.0274 |
| AGCTCGGC | 0.354 |
| AGCCACTA | -0.194 |
| CGGTCATC | 0.192 |
| GAGAAGGA | -0.0299 |
| CACTATAG | -0.302 |
| CCGGGCCA | 0.348 |
| GTAAAGCA | -0.131 |
| ATAAATAC | 0.0813 |
| GCGGGCGA | 0.296 |
| AAGTTTTG | -0.105 |
| CGAAACGA | 0.0705 |
| CAGTCGGA | 0.297 |
| AGATCTAC | -0.157 |
| ATAGATGC | -0.0781 |
| GACCCGTA | -0.00899 |
| CTGAGTGC | -0.118 |
| CTTGGTTA | -0.127 |
| CTACTAAA | -0.0678 |
| CGGAGATC | 0.411 |
| CAACTCTA | -0.08 |
| GTCAATAA | -0.0708 |
| TATGATGA | -0.138 |
| ACCTTATG | -0.127 |
| CGCTACAA | 0.0997 |

| Sequence | PBM E-score |
| --- | --- |
| AAGTAATG | -0.00453 |
| AATGCTAG | -0.168 |
| ATGTGGCA | -0.172 |
| AGTTCGCC | 0.0635 |
| CGGACGGC | 0.327 |
| AAGCGATA | 0.027 |
| ACTTGATA | -0.114 |
| CTGCGCCC | -0.217 |
| CCTTTACC | -0.0724 |
| CGATTGCG | 0.157 |
| AGTGGTGA | 0.0401 |
| AGCCATAG | -0.21 |
| CCGGACGC | 0.366 |
| ACAAAACA | -0.0996 |
| ATGTAGTG | -0.189 |
| CTCACAGA | -0.242 |
| GTTATAAA | 0.0308 |
| AGTTGCAG | -0.198 |
| GTTAGTAA | -0.215 |
| AAGACTTG | -0.189 |
| CATGCCAA | -0.295 |
| ATGAAAGA | -0.115 |
| AACTCCCG | 0.333 |
| TTACTCAA | 0.0459 |
| ACTCGGCC | 0.361 |

| Sequence | PBM E-score |
| --- | --- |
| CTTCCCCC | -0.0699 |
| ATGCATAC | -0.217 |
| TGGGCAAA | 0.0173 |
| CGACTCCG | 0.292 |
| AAATAATC | -0.0341 |
| ACGCGTTC | 0.0769 |
| AAAGCGCA | 0.171 |
| CTAAAATA | -0.22 |
| GAGCCATC | -0.132 |
| CCACGAAA | -0.167 |
| CCCTCCCG | 0.0775 |
| AAGTCCGC | 0.427 |
| CTCCGCTA | 0.336 |
| GCTACCGA | 0.073 |
| CGCCTGCC | -0.162 |
| ACAGAACG | -0.103 |
| AGGTCCGG | 0.396 |
| CCGAGAAC | 0.329 |
| ACGCTGCA | -0.166 |
| AGGATCCA | -0.066 |
| AAGCTCAT | -0.0306 |
| CCTCACCC | 0.00255 |
| GCTCTCAC | -0.0915 |
| GCAAATCA | -0.101 |
| ATATCGTC | 0.0615 |

| Sequence | PBM E-score |
| --- | --- |
| AACCTCTT | 0.0533 |
| AACGCTAC | -0.0683 |
| CAAAACTA | -0.0983 |
| AAGCTGCC | 0.0235 |
| AATCCTCA | -0.195 |
| CGCTATCA | 0.155 |
| GGATCGAA | 0.168 |
| AAATAGCG | 0.0285 |
| CAACCGTA | -0.223 |
| GACGCACC | -0.118 |
| AGGCCTAA | -0.118 |
| AACTCCCA | -0.00143 |
| ACACCTTG | -0.173 |
| CCCCTGTC | -0.219 |
| CCGTTTTC | 0.15 |
| ATAATATG | -0.00444 |
| ACCTTGTA | -0.276 |
| CACGAAAA | 0.0279 |
| GATCCCTA | -0.054 |
| GTCGGTGA | 0.216 |
| ATACTAGC | 0.0485 |
| GATGACTA | -0.195 |
| GGATCAAC | 0.132 |
| CAATGTAC | -0.294 |
| CGGCTAAC | 0.216 |

| Sequence | PBM E-score |
| --- | --- |
| GATTTCCC | 0.104 |
| ATTAGGAA | 0.0168 |
| AACGTTAA | 0.00437 |
| AGCGGACT | 0.287 |
| AGATCTTC | -0.0164 |
| ATTGCTGA | -0.219 |
| GATAGAAC | 0.0757 |
| ATCCGGAC | 0.439 |
| CTGTAATA | 0.108 |
| ATAAAAAT | -0.0103 |
| CCCGGGGA | 0.359 |
| CTCGAGCC | -0.0212 |
| AAGAACGC | -0.011 |
| ATTGGTTG | -0.269 |
| GAATGTAC | -0.0234 |
| CCCCATTA | -0.149 |
| ATTTACAC | -0.0353 |
| CCGGCCAG | 0.351 |
| CGGTAGAC | 0.22 |
| AATTGCGA | 0.0482 |
| AACGTCCT | -0.141 |
| AGACAAGA | 0.14 |
| TAACACAA | -0.167 |
| AGCTTGGA | -0.265 |
| ACAGGTCC | 0.138 |

| Sequence | PBM E-score |
| --- | --- |
| AATATCAA | -0.125 |
| GATCGAAA | 0.121 |
| AAGAGTTC | -0.153 |
| GAAGATTC | 0.051 |
| GAAAGTTC | -0.0221 |
| ATAAGGTA | -0.0129 |
| TCCTTCGA | -0.0371 |
| CCGCCTAA | 0.0232 |
| GCTGCCGA | 0.161 |
| GTACTCTA | -0.244 |
| ACAACGCT | -0.153 |
| AGTAGGTA | -0.138 |
| CTTTCGCC | 0.143 |
| GAACACTC | 0.192 |
| GGTGCGAC | -0.0564 |
| CAATCTAC | -0.153 |
| GCTCGGCA | 0.253 |
| CTGAGTAC | -0.158 |
| CCGGCATA | 0.268 |
| CGTCTAAA | -0.0423 |
| CAGAATAA | -0.155 |
| AGGCCTAG | -0.275 |
| AACCCTAT | -0.182 |
| AGTTCAAA | 0.0357 |
| GCATTATA | -0.075 |

| Sequence | PBM E-score |
| --- | --- |
| ATAAATAG | 0.151 |
| CTGCAGAC | -0.128 |
| GCTCAATA | -0.0662 |
| CCAGATAC | -0.0844 |
| TCCTGTCA | -0.199 |
| CTAGGAAG | -0.318 |
| ACTGCCCC | -0.0898 |
| AAGTTCGC | -0.0822 |
| TCAGTAGA | -0.241 |
| AAGTACAT | 0.0278 |
| GGAATGAA | 0.102 |
| CTTTAGAC | -0.202 |
| GTCTATTA | -0.0988 |
| CGTGGTTC | 0.0597 |
| CACCCGTG | -0.138 |
| AATTCCCC | 0.189 |
| AGGCGATG | -0.0588 |
| CGAACTCG | 0.192 |
| CCTCAGCA | -0.195 |
| GAGAGGAC | -0.149 |
| GAACTGTC | 0.00192 |
| TTATAAAA | 0.0188 |
